Among all 310,000 compounds or so, about 14,000 (4.5%) showed an effect of 50% or more. The effect is printed as a negative number. The list shows a part of the results.
Target: human ether-à-go-go-related gene (hERG) potassium channel (human, UniProt Q12809)
Assay: primary screen, population patch clamp on CHO cells stably expressing hERG
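Further: peak tail current of the secondary pulse compared with the same well before compound.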

human ether-à-go-go-related gene (hERG) potassium channel, sequence (Q12809 whole entry, looked up): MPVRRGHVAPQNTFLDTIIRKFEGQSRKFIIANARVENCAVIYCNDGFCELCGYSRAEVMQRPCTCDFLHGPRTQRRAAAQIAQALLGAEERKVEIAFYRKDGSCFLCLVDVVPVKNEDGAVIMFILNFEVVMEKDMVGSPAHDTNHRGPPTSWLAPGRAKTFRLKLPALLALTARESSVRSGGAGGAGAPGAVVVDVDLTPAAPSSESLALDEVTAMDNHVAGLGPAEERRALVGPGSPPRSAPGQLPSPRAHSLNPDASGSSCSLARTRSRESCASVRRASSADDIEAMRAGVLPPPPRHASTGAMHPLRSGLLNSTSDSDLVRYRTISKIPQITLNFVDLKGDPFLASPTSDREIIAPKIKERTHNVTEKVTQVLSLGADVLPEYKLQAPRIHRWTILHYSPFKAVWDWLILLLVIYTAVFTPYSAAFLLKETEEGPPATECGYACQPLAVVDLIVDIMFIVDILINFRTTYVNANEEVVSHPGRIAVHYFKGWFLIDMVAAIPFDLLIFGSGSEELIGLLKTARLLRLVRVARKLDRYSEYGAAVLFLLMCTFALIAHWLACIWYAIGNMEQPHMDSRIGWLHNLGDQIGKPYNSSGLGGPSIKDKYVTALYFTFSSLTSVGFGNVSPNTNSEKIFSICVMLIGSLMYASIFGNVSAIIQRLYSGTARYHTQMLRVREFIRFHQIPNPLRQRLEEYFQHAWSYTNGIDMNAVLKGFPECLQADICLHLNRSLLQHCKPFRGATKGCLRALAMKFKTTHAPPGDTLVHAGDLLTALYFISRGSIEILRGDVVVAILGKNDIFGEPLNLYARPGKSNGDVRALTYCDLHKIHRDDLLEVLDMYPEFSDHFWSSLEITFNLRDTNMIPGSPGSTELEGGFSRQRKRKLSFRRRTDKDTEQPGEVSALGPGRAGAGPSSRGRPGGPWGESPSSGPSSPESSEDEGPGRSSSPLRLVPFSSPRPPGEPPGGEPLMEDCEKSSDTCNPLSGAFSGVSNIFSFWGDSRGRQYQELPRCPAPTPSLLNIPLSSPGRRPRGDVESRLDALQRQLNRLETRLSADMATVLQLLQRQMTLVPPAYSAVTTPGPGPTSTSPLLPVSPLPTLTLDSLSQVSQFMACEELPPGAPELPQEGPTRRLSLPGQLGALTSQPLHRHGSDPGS

| Compound | hERG current change (%, negative = inhibition) at 10uM [%] |
| --- | --- |
| Cc1cccc(N(CC(=O)N2CCCC2)S(=O)(=O)c2ccccc2)c1 | -34.7 |
| O=C(c1ccc(F)cc1)C1CCN(C(=S)Nc2ccc(F)cc2)CC1 | -57.2 |
| CC(=O)CSc1ncnc2c1cnn2-c1ccccc1 | 12.6 |
| CN1CCN(c2ccc(NC(=O)c3ccc(-c4cccc([N+](=O)[O-])c4)o3)cc2)CC1 | 5.35 |
| Cc1cc(C)c(C(=O)N(CCN(C)C)CC2CCCN(Cc3ccccc3F)C2)o1 (centres unmarked) | 7.61 |
| Cc1ccc2c(c1)NC(C(C)(C)C)CO2 (centres unmarked) | 4.65 |
| CC1(c2ccc(OC(F)F)cc2)NC(=O)N(CC(=O)Nc2ccc(OC(F)F)cc2)C1=O (centres unmarked) | -94.9 |
| CCn1c(SCC(=O)O)nnc1-c1ccccc1 | 17.4 |
| Cc1ccc(Nc2nc(N)nc(CSc3nc(C)cc(C)n3)n2)cc1 | 3.09 |
| Cc1cccc(C)c1NC(=O)C(c1ccccc1)N1CCN(C(=O)c2ccco2)CC1 (centres unmarked) | -22.8 |
| C/C(=N\NC(=O)CCC(=O)Nc1ccccc1)c1cccs1 | 15.5 |
| Cc1sc(NC(=O)CSc2nnc3scc(-c4ccccc4)n23)c(C#N)c1C | 13.9 |
| Cc1ccc(S(=O)(=O)NCC(=O)N/N=C/c2ccccc2O)cc1 | 6.96 |
| Cc1ccc(N(Cc2ccc([N+](=O)[O-])cc2)C(=O)c2ccco2)cc1 | -35 |
| CCC(C)(C)n1nnnc1C(C(C)C)N(Cc1cccnc1)Cc1ccco1 (centres unmarked) | -2.92 |
| O=C(NCc1cccc(Cl)c1)c1ccc2ccccc2n1 | -23.6 |
| CN(C)c1ccc(NC(=O)CN2CCN(CC(=O)Nc3ccc(F)cc3)CC2)cc1 | -77.1 |
| O=C(N/N=C/C=C/c1ccccc1)C1CC1(c1ccccc1)c1ccccc1 (centres unmarked) | -1.54 |
| O=S(=O)(c1ccccc1)N1CCN2CCCC2C1 (centres unmarked) | 15.9 |
| Br.O=C(CN1C2=NCCCN2c2ccccc21)c1ccc(Br)s1 | -67.2 |
| O=C(OCCCc1ccncc1)c1ccc(S(=O)(=O)N2CCOCC2)cc1 | -3.75 |
| Cc1ccnc(NC(=O)c2ccc(Cl)c(NC(=O)CCc3ccccc3)c2)c1 | 0.468 |
| CCCCSCc1[nH]c(=O)[nH]c1C(=O)CCCCC(=O)OCC | -13.8 |

| Compound | hERG current change (%, negative = inhibition) at 10uM [%] |
| --- | --- |
| O=C(Nc1ccc(C(=O)N2CCOCC2)cc1)c1cnn2c(C(F)F)cc(-c3ccccc3)nc12 | -32 |
| O=C(O)COc1ccc2c3c(c(=O)oc2c1)CCCC3 | 34.7 |
| COc1ccc(C(=O)COC(=O)CCS(=O)(=O)c2ccc(C)cc2)c(OC)c1 | -25.8 |
| Cc1ccc(-c2ccc3nnc(SCC(N)=O)n3n2)cc1 | -3.82 |
| Cc1cc(OCC(=O)Nc2ccncc2)c(C)cc1Br | 9.78 |
| Cc1c(OC(C)C(=O)NCC(O)c2ccccc2)ccc2c3c(c(=O)oc12)CCCC3 (centres unmarked) | 0.251 |
| CCC(=O)c1ccc(OCC(=O)Nc2nc(-c3cccnc3)cs2)cc1 | -4.61 |
| Cc1ccc(C)c(CN2CCCNC2=O)c1 | -4.29 |
| N#Cc1cc(-c2ccccc2)nnc1Oc1ccccc1 | 9.99 |
| OC1(c2cccc(C(F)(F)F)c2)CCN(CCN2CCCCC2)CC1 | -3.82 |
| COc1ccc(C2C(C#N)=C(N)N(N(C)C)C3=C2C(=O)CCC3)cc1 (centres unmarked) | 9.88 |
| CCc1cccc(NC(=O)C2CCCN2S(=O)(=O)c2ccc3c(c2)n(C)c(=O)c(=O)n3C)c1 (centres unmarked) | -9.62 |
| CC(C)(C)Nc1nc(Cl)nc(Nc2ccccc2)n1 | -5.99 |
| CCCC1NC(=S)N(C2CCCCC2)C1=O (centres unmarked) | 6.08 |
| Cn1c(=O)c(C(=O)NNC(=O)c2ccccc2Cl)c(O)c2ccccc21 | -3.01 |
| COc1ccc(/C=C/C(=O)c2ccc([N+](=O)[O-])o2)cc1OC | 6.96 |
| COc1ccc(CNC(=O)Cn2nc([N+](=O)[O-])c(Br)c2C)cc1 | -15.5 |
| CCOC(=O)C1=C(CNCCc2ccc(Cl)cc2)NC(=O)NC1c1ccc2c(c1)OCO2 (centres unmarked) | -20.8 |
| CCOC(=O)c1ccc(NS(=O)(=O)c2c(C)n[nH]c2C)cc1 | -9.76 |
| Cc1ncc(CO)c(/C=N/NC(=O)c2cccc(S(=O)(=O)N3CCCC3)c2)c1O | 15.5 |
| N/C(=N\OC(=O)/C=C/c1ccccc1)c1ccccc1 | 3.82 |
| CC(C)Oc1ccccc1C1(c2ccccc2)NC(=O)NC1=O (centres unmarked) | 12.2 |
| Cc1ccc2c(c1)NC(=O)C(CC(=O)NCCCN1CCCCC1C)O2 (centres unmarked) | -4.68 |

| Compound | hERG current change (%, negative = inhibition) at 10uM [%] |
| --- | --- |
| O=C1C2C3C=CC(C3)C2C(=O)N1Nc1c(Cl)cc(Cl)cc1Cl (centres unmarked) | 3.63 |
| COc1cc(/C=C/C(=O)OCC(=O)NC(=O)NC23CC4CC(CC(C4)C2)C3)ccc1OCC#N | 10.7 |
| COc1ccc(CCNC(=O)C2CCCN(S(=O)(=O)c3cnc[nH]3)C2)cc1OC (centres unmarked) | 8.77 |
| O=Cc1ccc(Oc2cc(-c3ccccc3)nc(-c3ccccc3)n2)cc1 | 11.5 |
| COc1cc(OC)c2c(-c3ccccc3)cc(=O)oc2c1C(CC(=O)N1CCCC1)c1ccc2c(c1)OCO2 (centres unmarked) | -0.732 |
| CC1=[N+]([O-])C(N2CCOCC2)C(O)(c2ccccc2)C1 (centres unmarked) | 9.09 |
| Cc1nnc(SCC(=O)N2CCCC2)n(N)c1=O | 14.1 |
| c1ccc(CN2CCCC3(CCCN(Cc4nc(CC5CC5)no4)C3)C2)cc1 (centres unmarked) | -52.1 |
| O=C(NCC1CCCO1)c1cccc(Oc2ccc([N+](=O)[O-])cc2)c1 (centres unmarked) | -73.7 |
| Br.Cc1cccc(C2CN(C)CCc3c2cc(O)c(O)c3Cl)c1 (centres unmarked) | -51.1 |
| CCOC(=O)c1ccc(N2C(=O)CC(N3CCC(C(N)=O)(N4CCCCC4)CC3)C2=O)cc1 (centres unmarked) | 17.4 |
| CCN(C(=O)CN1CCN(c2cccc(C(F)(F)F)c2)CC1)c1c(N)n(Cc2ccccc2)c(=O)[nH]c1=O | -20.3 |
| OC(COc1ccc2ccccc2c1)Cn1ccnc1 (centres unmarked) | -12.1 |
| O=C(NCc1ccccc1)N[C@@H](Cc1ccccc1)C(=O)O | 5.79 |
| S=C(c1cn(CCOc2cccc3ccccc23)c2ccccc12)N1CCCC1 | 0.42 |
| COc1ccc(NC(C)=O)cc1NC(=O)c1cccc(S(=O)(=O)N2CCc3ccccc32)c1 | -40.1 |
| Cc1cc(C(=O)CN2C(=O)C(=O)N(Cc3ccccc3)C2=O)c(C)n1Cc1ccc(F)cc1 | 8.39 |
| CCCCCCCC(=O)NN1CCOCC1 | 10.1 |
| COc1ccc2cc(-c3[nH]ncc3CNCCn3nc(C)cc3C)ccc2c1 | -63.2 |
| CC12CCC(=O)N1C(C(=O)NNC(=O)COc1ccccc1Cl)CS2 (centres unmarked) | -19.2 |
| CC1CN(C(=O)COC(=O)[C@@H]2CC(O)CN2S(=O)(=O)c2ccc3c(c2)OCCO3)CC(C)O1 (some centres unmarked) | -1.29 |
| CCOC(=O)N1CCN(CCCc2ccccc2)CC1 | -6.26 |
| COc1ccc(N2C(=O)c3cccc4cccc(c34)C2=O)nn1 | -3.92 |

| Compound | hERG current change (%, negative = inhibition) at 10uM [%] |
| --- | --- |
| Cc1ccc2c(C)c(C(=O)Nc3c(C)n(C)n(-c4ccccc4)c3=O)oc2c1C | -29.4 |
| Cc1cc(C)nc(SCNC(=O)c2ccc(F)cc2)n1 | 6.25 |
| CC(CCc1ccccc1)NS(=O)(=O)c1ccccc1Cl (centres unmarked) | -2.92 |
| COc1ccc(C(C)NC(=O)C23CC4CC(CC(C4)C2)C3)cc1 (centres unmarked) | 19.2 |
| COc1ccc(/C=C/C(=O)NC(=S)Nc2ccc(S(=O)(=O)Nc3ccc(OC)nn3)cc2)cc1 | 6.72 |
| Cc1cccc2[nH]c3c(N4CCC5(CC4)OCCO5)ncnc3c12 | -14 |
| CC(C)(C)c1cc2nc(N)nc(N)n2n1 | 7.36 |
| Cc1cc(C(F)F)nn1CC(=O)N1CCSCC1 | 4.41 |
| O=C(O)CCCC(=O)Nc1ccc(Br)cc1C(=O)O | 11 |
| COc1ccc(-c2csc(-c3cc4ccccc4oc3=N)n2)cc1 | -4.44 |
| Cl.N=c1c[n+](N2CCOCC2)[n-]o1 | 24.4 |
| COC(=O)c1cc2sccc2n1Cc1nc(-c2ccc(Cl)cc2)oc1C | 9.92 |
| COCCNC(=O)C(OC(=O)c1ccco1)c1ccccc1F (centres unmarked) | 7.27 |
| Cn1cc(Cl)c(C(=O)Nc2nc3ccccc3s2)n1 | -5.55 |
| c1ccc(Oc2nc(Oc3ccccc3)nc(N3CCOCC3)n2)cc1 | -9.22 |
| COCCN(Cc1ccccc1)C(=O)C1CCN(S(=O)(=O)c2ccc3c(c2)OCCO3)CC1 | -29.1 |
| Cc1cc(C)n(-c2c(F)c(F)c(CN3CCOCC3)c(F)c2F)n1 | 10.8 |
| O=C(NCCc1ccc(Cl)cc1Cl)c1ccc2nc[nH]c2c1 | 6.25 |
| Oc1c(C(Nc2cccc(C(F)(F)F)c2)c2ccncc2)ccc2cccnc12 (centres unmarked) | 12.3 |
| Cc1ccc(NC(=O)CSc2nnc(Cc3ccccc3)o2)c(C)c1 | 18.4 |
